Source: US20180194862A1 (AbbVie / Abbott, published 2018)
Values belong to the binder of their own block, whether it stands above or below them.

Columns and labels:
[1] = biological target: T1, human CD40 on cells (HEK293 stable transfectants, HEK-Blue CD40 cells, human B cells, monocytic cells, … (human, UniProt P25942 21-277)); assay: CD40 occupancy on B cells, -MSLN (n = 3)
T1 construct: also called cell-surface CD40

[2] = biological target: CD40 (binding assays of Example 4, Table 4-2); assay: antigen binding, format not stated
[3] = biological target: T2, MSLN (binding assays of Example 4, Table 4-2) (Homo sapiens (Human), UniProt Q13421 296-598); assay: antigen binding, format not stated
T2 construct: also called mesothelin

[4] = biological target: T1, human CD40 on cells (HEK293 stable …); assay: cell-based or functional assay
cynomolgus mesothelin = biological target: T3, cynomolgus mesothelin (cynomolgus); assay: SPR
T3 construct: also called cynoMSLN; Cyno MSLN

[5] = biological target: T4, soluble form of the extracellular domain of cynomolgus (cyno) CD40 (Creative BioMart) (cynomolgus, UniProt G7PG38 21-193); assay: SPR
T4 construct: extracellular domain; also called Cynomolgus CD40

human mesothelin = biological target: T5, human mesothelin (human, UniProt Q13421 296-580, limits assumed); assay: SPR
T5 construct: also called Human MSLN

[6] = biological target: T6, soluble form of the extracellular domain of human CD40 (Creative BioMart) (human, UniProt P25942 in part); assay: SPR
T6 construct: Bought

[7] = biological target: T1, human CD40 on cells (HEK293 stable …); assay: cell-based or functional assay; remark: listed apart in the source

human mesothelin, sequence (Q13421 other isoform, or with tags, fused parts or gaps limits assumed): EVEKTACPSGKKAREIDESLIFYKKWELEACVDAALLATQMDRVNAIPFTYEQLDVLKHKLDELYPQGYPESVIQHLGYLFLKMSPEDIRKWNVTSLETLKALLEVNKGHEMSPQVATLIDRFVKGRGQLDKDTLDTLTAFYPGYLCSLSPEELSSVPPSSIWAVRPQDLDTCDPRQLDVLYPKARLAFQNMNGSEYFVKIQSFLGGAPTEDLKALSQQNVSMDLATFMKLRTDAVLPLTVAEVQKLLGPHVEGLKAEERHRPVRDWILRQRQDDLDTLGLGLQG
CD40 (binding assays of Example 4, Table 4-2), sequence (P25942 21-277): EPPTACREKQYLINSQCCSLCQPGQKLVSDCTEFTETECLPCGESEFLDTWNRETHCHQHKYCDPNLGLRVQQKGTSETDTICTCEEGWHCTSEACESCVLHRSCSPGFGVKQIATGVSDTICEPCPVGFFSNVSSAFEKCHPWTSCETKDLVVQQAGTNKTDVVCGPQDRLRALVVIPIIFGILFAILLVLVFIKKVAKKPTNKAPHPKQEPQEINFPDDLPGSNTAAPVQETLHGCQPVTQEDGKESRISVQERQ

EC50 [1]: 5 nM
EC50 [2]: 0.4 µg/mL
EC50 [3]: 9 µg/mL
B-cell CD23 EC50, +MSLN [4]: 0.12 nM
B-cell CD23 EC50, -MSLN [4]: 10 nM
B-cell CD86 EC50, +MSLN (HEK293 expressing mesothelin) [4]: 0.035 nM
B-cell CD86 EC50, -MSLN [4]: 1.4 nM
B-cell proliferation EC50, +MSLN [4]: 0.33 nM
B-cell proliferation EC50, -MSLN [4]: 22 nM
moDC CD83 EC50, +MSLN [4]: 0.15 nM
moDC IL-12p70 EC50, +MSLN [4]: 0.44 nM
B1: B40 (bispecific antibody, IgG1)
chain: EVQLQESGPGLVKPSETLSLTCTVSGYSITSNYYWNWIRQPPGKGLEWMGYIRYDGSNNYNPSLKNRVTISRDTSKNQFSLKLSSVTAADTAVYYCARLDYWGQGTTVTVSSDLSGGGGSGGGGSGGGGSGGGGSTGDAVMTQTPLSLSVTPGQPASISCRSSQSLENTNGNTFLNWYLQKPGQSPQLLIYRVSNRFSGVPDRFSGSGSGTDFTLKISRVEAEDVGVYYCLQVTHVPFTFGQGTKLEIKRLE[human IgG1 Fc with C220S V273E (EU numbers) not written out]VDGASSPVNVSSPSVQDISYELTQPPSVSVSPGQTASITCSGDKLGDKYASWYQQKPGQSPVLVIYQDNRRPSGIPERFSGSNSGNTATLTISGTQAMDEADYYCQAWDSDTYVFGTGTKVTVLGQDLSGGGGSGGGGSGGGGSGGGGSTGEVQLVQSGAEVKKPGASVKVSCKASGDTFKRYYVHWVRQAPGQGLEWMGIINPSGVSTTYAQKFQGRVTMTRDTSTSTVYMELSSLRSEDTAVYYCAEVRGSGFNYFGMDVWGQGTLVTVSS
notes: scFv-Fc-scFv: huAb9-5 (VH-VL), huIgG1 V273E, HuAM15 (VL-VH)

Kd (cynomolgus mesothelin): 0.87 nM
koff (cynomolgus mesothelin): 5.3e-05 s⁻¹
kon (cynomolgus mesothelin): 61000 M⁻¹ s⁻¹
Kd [5]: 9.5 nM
koff [5]: 0.013 s⁻¹
kon [5]: 1.4e+06 M⁻¹ s⁻¹
Kd (human mesothelin): 2.4 nM
koff (human mesothelin): 3e-05 s⁻¹
kon (human mesothelin): 13000 M⁻¹ s⁻¹
Kd [6]: 13 nM
koff [6]: 0.014 s⁻¹
kon [6]: 1.1e+06 M⁻¹ s⁻¹
Max. IL-12p70, DC co-cultured with HEK293 expressing mesothelin [7]: 300 pg/mL
B2: V6-6 (bispecific antibody, IgG1)
chain: EVQLQESGPGLVKPSETLSLTCTVSGYSITSNYYWNWIRQPPGKGLEWMGYIRYDGSNNYNPSLKNRVTISRDTSKNQFSLKLSSVTAADTAVYYCARLDYWGQGTTVTVSSGGGGSGGGGSGGGGSGGGGSGGGGSGGGGSDAQMTQSPSSLSASVGDRVTITCRSSQSLENTNGNTFLNWFQQKPGKAPKLLIYRVSNRFSGVPSRFSGSGSGTDFTLTISSLQPEDFATYYCLQVTHVPFTFGQGTKLEIKR[human IgG1 Fc with C220S V263L (EU numbers) not written out]GGGGSGGGSGGGSGGGGSSYELTQPPSVSVAPGQTARISCSGDKLGDKYASWYQQKPGQAPVLVIYQDNRRPSGIPERFSGSNSGNTATLTISGTQAEDEADYYCQAWDSDTYVFGGGTKLTVLGQGGGGSGGGGSGGGGSGGGGSGGGGSGGGGSEVQLVQSGAEVKKPGASVKVSCKASGDTFKRYYVHWVRQAPGQGLEWMGIINPSGVSTTYAQKFQGRVTMTRDTSTSTVYMELSSLRSEDTAVYYCAEVRGSGFNYFGMDVWGQGTLVTVSS
notes: scFv-Fc-scFv, IgG1 V263L
